Measurements published in PubChem BioAssay AID651820 (National Center for Advancing Translational Sciences (NCATS), 2012).
Among all 340,000 compounds or so, about 12,000 (3.5%) were called active. The shares of active, inactive and inconclusive entries below differ from those in the screen. Calls come from the whole dose curve; as a rule, active = well fitted inhibition curve with a large enough effect; inconclusive = small, poorly fitted or top-dose-only effect, or another doubt; inactive = no such curve, though single readings can be large or run the other way. No potency is given beside an inconclusive call; the fits are too rough.
% is set by controls: 0 for no effect and ±100 for the full control effect; potency is the fitted concentration of half-maximal effect; tags give direction and shape of the fitted curve.

Assay: qHTS Assay for Inhibitors of Hepatitis C Virus (HCV)
Settings: Huh7.5.1 HCVcc-Cre (HCVcc is cell-culture hepatitis C virus) infection, luciferase reporter, 44 h; activity change, negative = inhibition: at 41.8 µM (top of the series) unless noted
Method in brief: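 Cells seeded at 1,000/well and cultured 4 h, then compounds added followed by HCVcc-Cre virus (~0.5 moi). After 44 h further culture, luciferase substrate was added, plates held 15 min at room temperature, and luminescence read for 15 sec.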
In the case of `O=C(CSc1c2c(nc3cc(Cl)ccc13)CCCC2)NCc1ccco1`, the Potency is reported as active: 11.2 µM.
In the case of `O=C(N/N=C/c1ccco1)c1cc(Br)ccc1OCc1ccccc1`, the Potency is reported as inconclusive [inhibitor, full curve].
For `COc1cccc(NC(=O)C2C3C=CC(O3)C2C(=O)NCc2cccnc2)c1` (stereo not given), the “activity change, negative = inhibition” value was inactive: 6.05%.
For `CCc1nc2ccc(C(=O)N3CCN(c4ccc(Cl)cc4)CC3)cc2nc1CC`, the Potency was inconclusive [inhibitor, single point].
In the case of `CCOc1ccc(Br)cc1CC(=O)O`, the “activity change, negative = inhibition” value is reported as inactive: 22.1%.
In the case of `COc1cc(NC(=O)c2cc(-n3cnnc3)ccc2Cl)cc(OC)c1`, the “activity change, negative = inhibition” value is reported as inactive: -21.5%.
With `COc1ccc(C(Nc2cc(C)ccn2)c2ccc3ccc(C)nc3c2O)cc1` (stereo not given) the Potency was inconclusive [inhibitor, partial curve].
For `CN(Cc1ccc(C(F)(F)F)cc1)C(=O)c1ccc(Oc2ccccc2)cc1`, the Potency was inconclusive [inhibitor, single point].
With `COc1ccc(CCNC(=O)C2CCN(Cc3nc(-c4ccc(Cl)cc4)oc3C)CC2)cc1OC` the Potency was inconclusive [inhibitor, partial curve].
With `Cc1ccc(Cl)cc1NC(=O)COc1ccccc1` the “activity change, negative = inhibition” value was inactive: -12.1%.
In the case of `CCCc1ccc(C(=O)N2CCN(c3ccccc3OCC)CC2)cc1`, the Potency is reported as inconclusive [inhibitor, single point].
In the case of `COC(=O)Cc1ccc2c3ccccc3n(C)c2c1`, the Potency is reported as inconclusive [inhibitor, single point].
In the case of `CCCSc1nc(N2CCOCC2)c2c(c1C#N)CCCC2`, the Potency is reported as active: 11.2 µM.
For `C=CCc1ccccc1OCC(O)CN1CCN(CCN2C(=O)c3cccc4cccc(c34)C2=O)CC1` (stereo not given), the Potency was active: 14.1 µM.
For `CC(=O)N1CCN(S(=O)(=O)c2cccc(C(=O)Nc3ccc(C)cn3)c2)CC1`, the Potency was inconclusive [inhibitor, single point].
With `O=C(Nc1nc(-c2ccccn2)cs1)c1cc(S(=O)(=O)N2CCOCC2)ccc1F` the Potency was inconclusive [inhibitor, partial curve].
For `CSc1cccc(NC(N)=O)c1`, the “activity change, negative = inhibition” value was inactive: 5.3%.
In the case of `CCN(CC)CCn1c(SCC(=O)Nc2cccc(OC)c2)nc2c(sc3ccccc32)c1=O`, the Potency is reported as active: 1.78 µM.
For `Cc1cc(C)c(C)c(OCCOCCN2CCN(C)CC2)c1`, the Potency was active: 3.98 µM.
For `CNC(=O)c1c(NC(=O)c2cccc(C)c2)sc2c1CCC2`, the Potency was inconclusive [inhibitor, single point].
With `O=C(NCCCc1ccccc1)c1ccc(CS(=O)Cc2ccc(Cl)cc2)o1` (stereo not given) the Potency was inconclusive [inhibitor, partial curve].
With `Cc1ccc(Cl)cc1NC(=O)C1C2CCC(O2)C1C(=O)O` (stereo not given) the “activity change, negative = inhibition” value was inactive: 0.125%.
With `C#CCOCCOCCOCCNc1nc(N2CCN(C(=O)[C@H]([C@@H](C)CC)n3cc([C@@H](N)CC(C)C)nn3)CC2)nc(N2CCN(C(=O)[C@H](Cc3cc4ccccc4[nH]3)n3cc([C@@H](N)Cc4ccc(O)cc4)nn3)CC2)n1` the “activity change, negative = inhibition” value was inactive: 29.9%.
With `Cc1ccc(NC(=O)c2ncn(CCCN3CCN(Cc4cccc5ccccc45)CC3)n2)cc1C` the Potency was inconclusive [inhibitor, full curve].
For `COCCCN(Cc1ccco1)C(=O)Cn1ncc2c([nH]c3ccccc32)c1=O`, the “activity change, negative = inhibition” value was inactive: -1.5%.
With `COc1ccc(Cc2nc3c4c(ncn3n2)Oc2ccc3ccccc3c2C4c2ccc(OC)c(OC)c2)cc1` (stereo not given) the Potency was inconclusive [inhibitor, partial curve].
In the case of `CCOc1cc(CNCc2ccccc2)ccc1OCc1ccc(Cl)cc1`, the Potency is reported as active: 22.4 µM.
With `COc1ccccc1NC(=S)N1CCN(C(c2ccccc2)c2ccccc2)CC1` the Potency was inconclusive [inhibitor, partial curve].
For `Oc1ccc(C=NNc2nc3ccccc3s2)c(O)c1`, the Potency was inconclusive [inhibitor, single point].
With `Cc1cc(C)n(C(=O)c2cc3sccc3[nH]2)n1` the Potency was inconclusive [inhibitor, partial curve, poor fit].
For `Cc1ccc(C)c(C(=O)Nc2cc(C)nn2-c2nc(C)cc(C)n2)c1`, the Potency was inconclusive [inhibitor, single point].
With `O=C(NCCCN1CCOCC1)c1ccc(N2CCCC2)c([N+](=O)[O-])c1` the “activity change, negative = inhibition” value was inactive: 1.42%.
For `Cc1ccc(-c2csc(N/N=C/c3ccco3)n2)cc1`, the Potency was inconclusive [inhibitor, single point].
For `COCCCn1c(SCC(=O)NC2CCCC2)nnc1-c1ccncc1`, the “activity change, negative = inhibition” value was inactive: -6.51%.
For `CC1CCCCC12NC(=O)N(CC(=O)Nc1ccc(Cl)c(S(=O)(=O)N3CCOCC3)c1)C2=O` (stereo not given), the activity change, negative = inhibition was inconclusive: -88.4% [inhibitor].
In the case of `CCOC(=O)C1=C(NC(=S)NC(=O)c2ccccc2)c2ccccc2CC1(C)C`, the Potency is reported as inconclusive [inhibitor, partial curve].
With `COc1cc(Nc2ccccn2)cc(C(=O)Nc2cccc(C(F)(F)F)c2)c1` the Potency was inconclusive [inhibitor, partial curve, poor fit].
In the case of `CN(Cc1ccccc1)C(NC(=O)c1ccccc1)C(Cl)(Cl)Cl` (stereo not given), the Potency is reported as inconclusive [inhibitor, single point].
In the case of `CCN(CC)CCNC(=O)c1cc2ccccc2nc1Cl`, the “activity change, negative = inhibition” value is reported as inactive: 5.84%.
For `CCOc1ccc2nc(SCC(=O)N3CCCc4ccccc43)sc2c1`, the Potency was inconclusive [inhibitor, single point].
In the case of `CNC(=O)c1c(I)c(C(=O)NCC(=O)Nc2c(I)c(C(=O)O)c(I)c(C(=O)NCCO)c2I)c(I)c(N(C)C(C)=O)c1I`, the “activity change, negative = inhibition” value is reported as inactive: 10.5%.
With `Cc1sc2ncnc(N3CCC(C(=O)N(CC(C)C)c4nc5ccccc5s4)CC3)c2c1C` the Potency was inconclusive [inhibitor, partial curve].
In the case of `Cc1ccccc1-c1cc(C(=O)N/N=C/c2cccnc2)c2ccccc2n1`, the “activity change, negative = inhibition” value is reported as inactive: -14.9%.
With `Cc1nnc(SCC(=O)N2c3ccccc3C(C)(c3ccc(Cl)cc3)CC2(C)C)s1` (stereo not given) the Potency was inconclusive [inhibitor, partial curve].
With `O=c1cc2c(nn1Cc1c(Cl)cccc1Cl)-c1ccccc1CC2` the Potency was active: 25.1 µM.
